# PubChem BioAssay AID1745853 (National Center for Advancing Translational Sciences (NCATS), 2022)
# The other results are listed elsewhere or left out. Shown are side measurements of this screen, not its main read-out; they come without a call.
# Experiments:
# Test in all cases: Primary Screen for Target Class Profiling of Small Molecule Inhibitors of Methyltransferases
# [1] = biological target: Glycine N-methyltransferase (Homo sapiens) (UniProt Q14749); settings: purified enzyme, MTase-Glo SAH luminescence; measured here: GNMT inhibition; at 40 µM; stronger effect = lower value
# Source text: (§1) PI: Matthew D. Hall Ph.D. and Quinlin M. Hanson Ph.D.
# (§2) National Center for Advancing Translational Sciences (NCATS)
# (§3) National Institute of Health (NIH), Rockville, MD
# (§4) Target class profiling (TCP) is a chemical biology approach amenable to investigating understudied biological targets. TCP is achieved by developing a generalizable assay platform and applying it to screen a curated set of compound libraries against representative members of a target class. Small molecule methyltransferases (SMMTase) are a subclass of methyltransferase that act on metabolites to modulate signaling pathways, metabolize xenobiotics, or balance the available methyl pool. We screened four curated libraries totaling 27,574 unique compounds against the SMMTases nicotinamide N-methyltransferase (NNMT), phenylethanolamine N-methyltransferase (PNMT), histamine N-methyltransferase (HNMT), glycine N-methyltransferase (GNMT), catechol O-methyltransferase (COMT), and guanidinoacetate N-methyltransferase (GAMT). The data generated by this TCP can be leveraged for informed tool molecule development. For example, in the associated publication we identified a chemotype of HNMT-selective inhibitors. Additionally, we identified a putative SMMTase-selective inhibitor with potential as a tool molecule for studying broader methyltransferase biology.
# (§5) High-through put screening assays were developed at the National Center for Advancing Translational Science (NCATS) for the enzymes NNMT, PNMT, HNMT, GNMT, COMT, and GAMT. Enzymatic activity was measured as a function of SAM cofactor conversion using the MTase Glo kit (Promega) for all enzymes. All assays were performed in 1536-well format with substrates and SAM concentrations at KM values. Enzyme concentration and assay timing were optimized for 10-20% SAM conversion. Initial screening of 27,574 compounds was done as single-point assays using the highest compound concentration (40 uM). […] These compounds were replated in 11-point dose response and assayed against NNMT, PNMT, HNMT, GNMT, COMT, GAMT, and a counter-assay. The IC50 and efficacy (maximal response) values were determined for each dose-response curve. These values are also accounted for in the area under the curve (AUC) values.
# (§6) PROTOCOL TABLE (as described by Inglese J, Shamu CE and Guy RK. 2007)
# (§7) SEQUENCE No. (e.g., 1, 2, 3, etc.); […] (e.g., Cells, Incubation, Reagent, etc.); VALUE; DESCRIPTION.
# (§8) 1; Reagent; 2 uL; SMMTase Enzyme (2x) in reaction buffer, columns 1- 48.
# (§9) 2; Reagent; 1 uL; SAM (4x) in reaction buffer, columns 1-48.
# (§10) 3; Controls; 23 nL; DMSO in column 4; sinefungin in DMSO (0 uM - 40 uM) in 7-point 1:2 dilution series (n = 2) in column 2.
# (§11) 4; Compounds; 23 nL; Columns 5-48.
# (§12) 5; Reagent; 1 uL; Substrate (4x) in reaction buffer, columns 2-48.
# (§13) 6; Time; 20-30 min; Incubation.
# (§14) 7; Reagent; 1 uL; MTase-Glo reagent (5X), columns 1-48.
# (§15) 8; Time; 30 min; Incubation.
# (§16) 9; Reagent; 5 uL; MTase-Glo Detection reagent, columns 1-48.
# (§17) 10; Time; 30 min; Incubation, luminescence evolution.
# (§18) 11; Detection; Luminescence; ViewLux uHTS Microplate Imager (PerkinElmer).
# (§19) NOTES (numbers refer to Sequence numbers above)
# (§20) 1, 2, 5. White Medium Binding Greiner 1536-well plates (Cat #789175-F, Greiner Bio-One, Monroe, NC); Reaction buffer: 50 mM Tris, pH 8.0, 3 mM MgCl2, 1 mM EDTA, 50 mM NaCl, 1 mM DTT, and 0.1 mg/mL BSA. Evaporation was prevented by covering assay plates with metal lids containing holes to allow gas diffusion.
# (§21) 1. Six SMMTase were profiled: HNMT, GNMT, PNMT, COMT, NNMT, GAMT
# (§22) 5. The corresponding substrate was used for each enzyme: HNMT - 5.3 uM Histamine; GNMT - >500 uM Glycine; PNMT - 16.2 uM Norephinephrine; COMT - 13.7 uM Norephinephrine; NNMT - 3.8 uM Nicotinamide; GAMT - 2.5 uM Guanidinoacetate.6, 8, 10. Room temperature
# (§23) 6. Final reaction conditions: 10 nM COMT, 5 uM SAM, 15 uM norepinephrine, 50 mM Tris, pH 8.0, 3 mM MgCl2, 1 mM EDTA, 50 mM NaCl, 1 mM DTT, and 0.1 mg/mL BSA; refer to tables 2 and S1 for specific timing.
# 8. […]
# [2] = biological target: Guanidinoacetate N-methyltransferase (Homo sapiens) (UniProt Q14353); settings: purified enzyme, MTase-Glo SAH luminescence; measured here: GAMT inhibition; at 40 µM; stronger effect = lower value
# Source text: as §1, §2, §3, §4, §5, §6, §7, §8, §9, §10, §11, §12, §13, §14, §15, §16, §17, §18, §19, §20, §21, §22, §23
# 8. […]
# [3] = biological target: Histamine N-methyltransferase (Homo sapiens) (UniProt P50135); settings: purified enzyme, MTase-Glo SAH luminescence; measured here: HNMT inhibition; at 40 µM; stronger effect = lower value
# Source text: as §1, §2, §3, §4, §5, §6, §7, §8, §9, §10, §11, §12, §13, §14, §15, §16, §17, §18, §19, §20, §21, §22, §23
# 8. […]
# [4] = biological target: Nicotinamide N-methyltransferase (Homo sapiens) (UniProt P40261); settings: purified enzyme, MTase-Glo SAH luminescence; measured here: NNMT inhibition; at 40 µM; stronger effect = lower value
# Source text: as §1, §2, §3, §4, §5, §6, §7, §8, §9, §10, §11, §12, §13, §14, §15, §16, §17, §18, §19, §20, §21, §22, §23
# 8. […]
# [5] = biological target: Phenylethanolamine N-methyltransferase (Homo sapiens) (UniProt P11086); settings: purified enzyme, MTase-Glo SAH luminescence; measured here: PNMT inhibition; at 40 µM; stronger effect = lower value
# Source text: as §1, §2, §3, §4, §5, §6, §7, §8, §9, §10, §11, §12, §13, §14, §15, §16, §17, §18, §19, §20, §21, §22, §23
# 8. […]
# On the % scale 0 is the no-effect control and ±100 the full control effect.
SMILES,"activity change, negative = inhibition [1] [%]","activity change, negative = inhibition [2] [%]","activity change, negative = inhibition [3] [%]","activity change, negative = inhibition [4] [%]","activity change, negative = inhibition [5] [%]"
Cc1ccccc1CN1CC(=O)N(Cc2ccc(F)cc2)c2ccccc2S1(=O)=O,11,0.797,16.7,-4.67,2.14
CCCCNC(=O)CCc1nnc2n(CCc3ccccc3)c(=O)c3ccccc3n12,1.33,0.429,9.03,11.5,-0.96
CC(C)CCNc1nc2c(-c3ccccc3)nnn2c2ccccc12,-6.74,-3.71,-7.93,-11.9,-9.94
COCC1CN(C)CC12CCN(C(=O)COc1cccc(C)c1)CC2 (stereo not given),-3.93,-2.9,-12.1,-2.36,1.85
C=CCn1c(=O)c2ccc(C(=O)NC(C)CC)cc2n2c(=O)n(CC(=O)NC(C)CC)nc12 (stereo not given),-1.59,3.23,-0.583,-6.95,-1.86
CCOCCCNC(=O)CNC(=O)C1(C)Cn2c(cc3ccccc32)C(=O)N1C (stereo not given),-4.29,0,0.857,-2.06,-1.65
Cc1ccc(N2C(=O)c3cc4oc(C)cc4n3CC2(C)C(=O)NC2CCCCCC2)cc1 (stereo not given),3.19,0.72,9.98,12.2,5.41
O=C1Nc2ccccc2CC12CCCN(C1COC1)C2 (stereo not given),-3.5,-3.77,-0.452,-1.84,-3.7
COc1ccc(-c2nnn3c2nc(NCCc2ccc(OC)c(OC)c2)c2ccccc23)cc1,-32.3,10.7,7.6,11.3,-1.27
C=CCn1c(=O)c2ccc(C(=O)NC(C)C)cc2n2c(=O)n(CC(=O)Nc3ccccc3)nc12,4.24,0,0.984,1.96,4.22
CC(C)c1noc(-c2ccn3c(CNC(=O)c4ccoc4)nnc3c2)n1,-2.52,-0.894,3.13,-5.7,16.1
CN(C(=O)c1ccccc1)C1CCOc2ccccc21 (stereo not given),-5.56,-13,-3.72,-20.3,-18.5
O=C(NCC1CCCO1)c1cc(-c2ccccc2F)cc2c1OCCN2Cc1cccnc1 (stereo not given),-15.8,-3.94,-4.84,-13.7,-2.97
COCCCNC(=O)C1(C)Cn2nc(-c3ccccc3)cc2C(=O)N1c1ccc(OC)cc1 (stereo not given),3.37,0,5.04,7.91,-0.19
CCC(C)NC(=O)c1ccc2c(=O)n(C)c3nn(CC(=O)c4cccc(Cl)c4)c(=O)n3c2c1 (stereo not given),1.93,0,2.51,-6,4.42
CC1(C(=O)NC2CCCCC2)Cn2c(cc3ccccc32)C(=O)N1Cc1cccs1 (stereo not given),-1.15,0,2.49,-0.232,-11.2
Cc1nc(C#Cc2ccnc(Cl)c2)c(C)n1-c1ccc(F)cc1,-41.1,-19.8,-47.5,-51.1,-41.5
COc1ccc(C2(C(=O)N3CCOCC3)CCOCC2)cc1,-1.29,-2.81,-1.92,-1.8,0.267
Cc1ccc(C)c(N2CCN(C(=O)c3ccc4c(=O)nc5c(-c6cccc(F)c6)n[nH]n5c4c3)CC2)c1,-26.6,-1.81,-12.6,-18.2,-9.01
COc1ccccc1OC1CCN(Cc2ccccc2C#N)CC1,-4.57,-2.33,-4.6,-4.68,-5.94
CC(C(=O)NCc1cccc(Br)c1)n1ccc2cc(S(=O)(=O)N3CCCC3)ccc21 (stereo not given),-2.23,-2.69,-0.491,-12.5,-20.4
O=C(NCC1CCC(=O)N(Cc2ccccc2)CC1)C1CCCCC1 (stereo not given),-4.87,-6.68,-2.54,-10.2,6.19
CC1CCC2(OC1)OC1CC3C4CC=C5CC(O)CC(O[C@@H]6OC[C@@H](O)[C@H](O)[C@H]6O)C5(C)C4CCC3(C)C1(O)C2C (stereo not given in full),-0.406,-3.53,-0.675,-15.9,0.395
Cn1nc(C2CCCC2)cc1N[S+](=O)([O-])c1ccccc1,-0.434,-2.28,-0.275,-4.64,2.7
CN(C)S(=O)(=O)N1CCC(Oc2ccc(C(=O)NCCc3ccncc3)cc2)CC1,-5.01,-7.33,-1.37,-12.7,-9.39
Cc1cc(Nc2ncnc3ccc(-c4ccc(CNCCS(C)(=O)=O)o4)cc23)ccc1Oc1ccn2ncnc2c1,-27.7,-7.58,-36.1,-27.6,-10
CCCCN1C(=O)c2cc(C(=O)NCCc3c[nH]c4ccccc34)nn2CC1(C)C(=O)NC1CCCC1 (stereo not given),6.08,0,-8.62,1.14,5.01
CC(C)CCN1C(=O)c2ccc(-c3ccccc3)n2CC1(C)C(=O)NC1CCCCCC1 (stereo not given),3.04,4.47,0.436,-0.215,-0.52
COC1CCN(c2cccc(-c3cc(NC(C)=O)nc(-n4nc(C)cc4C)n3)n2)CC1,-33.3,8.73,-15.4,-15.6,-3.48
